Reference: the supplement of paper PMC4967469

Tests used:
Test in all cases: Viability of human cancer cell lines after 72 h of drug (GDSC screen)
Gemcitabine = compound: Nc1ccn([C@@H]2O[C@H](CO)[C@@H](O)C2(F)F)c(=O)n1 [Gemcitabine]; conditions: top dose 1.024 µM
Procedure: (§1)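 Human cancer cell lines in 384-well plates, medium with 10% serum, drug for 72 h over a 256-fold dose range (nine 2-fold or five 4-fold steps up to the top dose). Adherent lines were fixed and stained with the nucleic acid dye Syto60, suspension lines read with resazurin; signal relative to control wells, capped at 0 and 100%. One two-parameter sigmoid per drug and line, fitted in a mixed model over all curves with the slope shared within a line.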

KIN001-270 = compound: Cc1ccc(Nc2cc(-c3cccc(N4C(=O)c5ccccc5C4=O)c3)ncn2)cc1NS(C)(=O)=O [KIN001-270]; conditions: top dose 20 µM; top dose inferred
Procedure: as §1

MP470 = compound: S=C(NCc1ccc2c(c1)OCO2)N1CCN(c2ncnc3c2oc2ccccc23)CC1 [MP470]; conditions: top dose 20 µM; top dose inferred
Procedure: as §1

AUY922 = compound: CCNC(=O)c1noc(-c2cc(C(C)C)c(O)cc2O)c1-c1ccc(CN2CCOCC2)cc1 [AUY922]; conditions: top dose 0.256 µM; top dose inferred
Procedure: as §1

TW-37 = compound: CC(C)c1ccccc1Cc1cc(C(=O)Nc2ccc(S(=O)(=O)c3ccccc3C(C)(C)C)cc2)c(O)c(O)c1O [TW-37]; conditions: top dose 5 µM
Procedure: as §1

LFM-A13 = compound: C/C(O)=C(\C#N)C(=O)Nc1cc(Br)ccc1Br [LFM-A13]; conditions: top dose 16 µM; top dose inferred
Procedure: as §1

Nilotinib = compound: Cc1cn(-c2cc(NC(=O)c3ccc(C)c(Nc4nccc(-c5cccnc5)n4)c3)cc(C(F)(F)F)c2)cn1 [Nilotinib]; conditions: top dose 2 µM
Procedure: as §1

Bicalutamide = compound: CC(O)(CS(=O)(=O)c1ccc(F)cc1)C(=O)Nc1ccc(C#N)c(C(F)(F)F)c1 [Bicalutamide]; conditions: top dose inferred
Procedure: as §1

T0901317 = compound: O=S(=O)(c1ccccc1)N(CC(F)(F)F)c1ccc(C(O)(C(F)(F)F)C(F)(F)F)cc1 [T0901317]; conditions: top dose 10.24 µM; top dose inferred
Procedure: as §1

[1] = top dose 1.024 µM, screen: GDSC drug entry 150
[2] = top dose 10 µM, screen: GDSC drug entry 1502

Row | Cell Line | AUC (Gemcitabine) | IC50 (Gemcitabine) | AUC (KIN001-270) | IC50 (KIN001-270) | AUC (MP470) | IC50 (MP470) | AUC (AUY922) | IC50 (AUY922) | AUC (TW-37) | IC50 (TW-37) | AUC (LFM-A13) | IC50 (LFM-A13) | AUC (Nilotinib) | IC50 (Nilotinib) | AUC (Bicalutamide; [1]) | IC50 (Bicalutamide; [1]) | AUC (Bicalutamide; [2]) | IC50 (Bicalutamide; [2]) | AUC (T0901317) | IC50 (T0901317)
1 | ASH-3 (thyroid, adherent) | 0.373 | 28.5 nM | 0.988 | > 20000 nM | 0.982 | > 20000 nM | 0.53 | 19.3 nM | 0.341 | 113 nM | 0.871 | 15000 nM | 0.956 | > 2000 nM | 0.868 | 934 nM | 0.987 | > 10000 nM | 0.988 | > 10200 nM
2 | T84 (large intestine, adherent) | 0.308 | 18.3 nM | 0.984 | > 20000 nM | 0.896 | > 20000 nM | 0.517 | 17.8 nM | 0.9 | > 5000 nM | 0.967 | > 16000 nM | 0.989 | > 2000 nM | 0.98 | > 1020 nM | 0.964 | > 10000 nM | 0.984 | > 10200 nM
3 | OVTOKO (ovary, adherent) | 0.178 | 4.96 nM | 0.966 | > 20000 nM | 0.955 | > 20000 nM | 0.5 | 16 nM | 0.493 | 298 nM | 0.864 | > 16000 nM | 0.933 | > 2000 nM | 0.98 | > 1020 nM | 0.949 | > 10000 nM | 0.974 | > 10200 nM
4 | SNG-M (endometrium, adherent) | 0.043 | < 4 nM | 0.924 | > 20000 nM | 0.833 | 12600 nM | 0.351 | 6.26 nM | 0.03 | < 19.5 nM | 0.967 | > 16000 nM | 0.96 | > 2000 nM | 0.979 | > 1020 nM | 0.983 | > 10000 nM | 0.954 | > 10200 nM
5 | FADU (head and neck, adherent) | 0.445 | 45.6 nM | 0.983 | > 20000 nM | 0.946 | > 20000 nM | 0.624 | 34.7 nM | 0.598 | 573 nM | 0.963 | > 16000 nM | 0.988 | > 2000 nM | 0.988 | > 1020 nM | – | – | 0.986 | > 10200 nM
6 | LU-135 (small cell lung carcinoma, suspension) | 0.179 | 8.8 nM | 0.972 | > 20000 nM | 0.925 | > 20000 nM | 0.447 | 11.8 nM | 0.56 | 443 nM | 0.992 | > 16000 nM | 0.97 | > 2000 nM | 0.979 | > 1020 nM | 0.99 | > 10000 nM | 0.992 | > 10200 nM
7 | NCI-H2029 (small cell lung carcinoma, adherent) | 0.947 | > 1020 nM | 0.988 | > 20000 nM | 0.912 | > 20000 nM | 0.94 | > 256 nM | 0.926 | > 5000 nM | 0.992 | > 16000 nM | 0.949 | > 2000 nM | 0.992 | > 1020 nM | 0.992 | > 10000 nM | 0.985 | > 10200 nM
8 | SW756 (cervix, adherent) | 0.287 | 14.1 nM | 0.966 | > 20000 nM | 0.87 | > 20000 nM | 0.635 | 40.6 nM | 0.374 | 131 nM | 0.963 | > 16000 nM | 0.984 | > 2000 nM | 0.982 | > 1020 nM | 0.982 | > 10000 nM | 0.958 | > 10200 nM
9 | RERF-LC-Sq1 (lung squamous cell carcinoma, adherent) | 0.964 | > 1020 nM | 0.976 | > 20000 nM | 0.949 | > 20000 nM | 0.979 | > 256 nM | 0.698 | 1480 nM | 0.933 | > 16000 nM | 0.941 | > 2000 nM | 0.968 | > 1020 nM | 0.968 | > 10000 nM | 0.966 | > 10200 nM
10 | COLO-679 (melanoma, adherent) | 0.268 | 12.8 nM | 0.976 | > 20000 nM | 0.954 | > 20000 nM | 0.579 | 27.1 nM | 0.488 | 289 nM | 0.91 | > 16000 nM | 0.929 | > 2000 nM | 0.974 | > 1020 nM | 0.967 | > 10000 nM | 0.982 | > 10200 nM
11 | NCI-H292 (lung adenocarcinoma, adherent) | 0.235 | 9.08 nM | 0.978 | > 20000 nM | 0.96 | > 20000 nM | 0.503 | 16.3 nM | 0.539 | 409 nM | 0.966 | > 16000 nM | 0.931 | > 2000 nM | 0.979 | > 1020 nM | 0.955 | > 10000 nM | 0.98 | > 10200 nM
12 | GMS-10 (glioma, adherent) | 0.966 | > 1020 nM | 0.987 | > 20000 nM | 0.974 | > 20000 nM | 0.686 | 53 nM | 0.564 | 467 nM | 0.976 | > 16000 nM | 0.988 | > 2000 nM | 0.981 | > 1020 nM | – | – | 0.988 | > 10200 nM
13 | JURL-MK1 (chronic myeloid leukaemia, suspension) | 0.215 | 9.37 nM | 0.971 | > 20000 nM | 0.905 | > 20000 nM | 0.553 | 22.3 nM | 0.538 | 396 nM | 0.977 | > 16000 nM | 0.039 | < 7.81 nM | 0.984 | > 1020 nM | 0.964 | > 10000 nM | 0.965 | > 10200 nM

IC50 is the fitted dose that halves viability relative to control wells, and lower means more sensitive; a limit (>, <) means that the fit lies beyond the doses tested. The AUC spans the tested range (256-fold, ending at the top dose) of the same fit: 1 means no effect, lower means more sensitive. For some of these results: A top dose marked as inferred was calculated from the reported fits. For some of these results: Drugs with an entry number were screened twice under separate entries, and the two screens often disagree.
